This note sets out measurements from the supplement of paper PMC4967469.

Assay in all cases: Viability of human cancer cell lines after 72 h of drug (GDSC screen)
Compound in assay [1]: COc1cc([C@@H]2c3cc4c(cc3[C@@H](O[C@@H]3O[C@@H]5CO[C@@H](C)O[C@H]5[C@H](O)[C@H]3O)[C@H]3COC(=O)[C@H]23)OCO4)cc(OC)c1O [Etoposide]
The following applies: top dose 16 µM. On the procedure: (§1)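 Human cancer cell lines in 384-well plates, medium with 10% serum, drug for 72 h over a 256-fold dose range (nine 2-fold or five 4-fold steps up to the top dose). Adherent lines were fixed and stained with the nucleic acid dye Syto60, suspension lines read with resazurin; signal relative to control wells, capped at 0 and 100%. One two-parameter sigmoid per drug and line, fitted in a mixed model over all curves with the slope shared within a line.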

Compound in assay [2]: C=C(c1ccc(C(=O)O)cc1)c1cc2c(cc1C)C(C)(C)CCC2(C)C [Bexarotene]
The following applies: top dose 8 µM. The method, then:
as §1

Compound in assay [3]: COc1cc(C(=O)NC2CCN(C)CC2)ccc1Nc1ncc2c(n1)N(C1CCCC1)C(C)CC(=O)N2C [NPK76-II-72-1]
The following applies: top dose 10.24 µM; top dose inferred. On the procedure: as §1

Compound in assay [4]: O=C(O)c1ccc(-c2c[nH]c3ncc(-c4ccccc4)cc23)cc1C1CCCC1 [GSK-650394]
The following applies: top dose 16 µM; top dose inferred. On the procedure:
as §1

Compound in assay [5]: Oc1nc(-c2ccc(C(F)(F)F)cc2)nc2c1CSCC2 [XAV 939]
The following applies: top dose 5 µM; top dose inferred. On the procedure: as §1

Compound in assay [6]: Cc1ccc2nc(NCCN)c3ncc(C)n3c2c1 [BMS-345541]
The following applies: top dose 16 µM. The method, then:
as §1

Compound in assay [7]: NC(=O)Nc1cc(-c2cccc(F)c2)sc1C(=O)N[C@H]1CCCNC1 [AZD7762]
The following applies: top dose 2 µM. On the procedure: as §1

Lines with a small IC50 respond at low doses; fits outside the tested doses are given as limits. AUC, from the same fit, is the share of area under the viability curve across the 256-fold dose range; it is 1 without any effect and falls as sensitivity rises. For part of these data: A top dose marked as inferred comes from the curve model; the source does not state it. Some results are limits rather than exact numbers.

As for H2803 (mesothelioma, adherent), the AUC is 0.86 in assay [1]; 0.98 in assay [2]; 0.956 in assay [3]; 0.98 in assay [4]; 0.937 in assay [5]; 0.892 in assay [6]. In addition, the IC50 was over 16 µM in assay [1]; over 8 µM in assay [2]; over 10.2 µM in assay [3]; over 16 µM in assay [4]; over 5 µM in assay [5]; over 16 µM in assay [6].
Turning to H2804 (mesothelioma, adherent), the AUC in assay [1] amounted to 0.542; in assay [2], 0.986; in assay [3], 0.938; in assay [4], 0.928; in assay [5], 0.984; in assay [6] it was 0.922. In addition, the IC50 was 1.31 µM in assay [1]; over 8 µM in assay [2]; over 10.2 µM in assay [3]; over 16 µM in assay [4]; over 5 µM in assay [5]; over 16 µM in assay [6].
On to H-EMC-SS (chondrosarcoma, adherent), for which the AUC turned out to be 0.869 in assay [1]; 0.961 in assay [2]; 0.721 in assay [3]; 0.951 in assay [4]; 0.979 in assay [5]; 0.892 in assay [6]. The IC50 in assay [1] is over 16 µM; in assay [2], over 8 µM; in assay [3] it was 3.3 µM; in assay [4], over 16 µM; in assay [5] it was over 5 µM; in assay [6] it was over 16 µM.
Regarding HT55 (large intestine, adherent), the AUC in assay [1] is 0.896; in assay [2] it was 0.956; in assay [3], 0.966; in assay [4], 0.948; in assay [7], 0.847; in assay [6], 0.986. In addition, the IC50 in assay [1] was over 16 µM; in assay [2] it was over 8 µM; in assay [3], over 10.2 µM; in assay [4], over 16 µM; in assay [7] it was 1.46 µM; in assay [6], over 16 µM.
In the case of IST-MES1 (mesothelioma, adherent), the AUC is 0.939 in assay [1]; 0.988 in assay [2]; 0.914 in assay [3]; 0.932 in assay [4]; 0.915 in assay [5]; 0.939 in assay [6]. The half-maximal inhibitory concentration (IC50) is over 16 µM in assay [1]; over 8 µM in assay [2]; over 10.2 µM in assay [3]; over 16 µM in assay [4]; over 5 µM in assay [5]; over 16 µM in assay [6].
Regarding KMS-12-BM (myeloma, suspension), the AUC in assay [1] was 0.751; in assay [2], 0.978; in assay [3] it was 0.592; in assay [4] it was 0.966; in assay [7], 0.513; in assay [6], 0.831. Also, the IC50 in assay [1] was 4.47 µM; in assay [2], over 8 µM; in assay [3] it was 1.09 µM; in assay [4], over 16 µM; in assay [7] it was 0.134 µM; in assay [6], 7.83 µM.
As for KYSE-140 (oesophagus, adherent), the AUC was found to be 0.713 in assay [1]; 0.924 in assay [2]; 0.938 in assay [3]; 0.765 in assay [4]; 0.472 in assay [7]; 0.714 in assay [6]. Also, the IC50 in assay [1] was 4.39 µM; in assay [2], over 8 µM; in assay [3], over 10.2 µM; in assay [4], 6.61 µM; in assay [7] it was 0.104 µM; in assay [6], 4.41 µM.
Take “LB647-SCLC (small cell lung carcinoma, semi-adherent)”: the AUC in assay [1] turned out to be 0.586; in assay [2], 0.972; in assay [4], 0.856; in assay [5], 0.983; in assay [7] it was 0.558; in assay [6], 0.724. The concentration for half-maximal inhibition (IC50) was 1.77 µM in assay [1]; over 8 µM in assay [2]; 15.5 µM in assay [4]; over 5 µM in assay [5]; 0.184 µM in assay [7]; 4.73 µM in assay [6].
Consider LB996-RCC (kidney, adherent), for which the AUC is 0.887 in assay [1]; 0.903 in assay [2]; 0.983 in assay [3]; 0.936 in assay [4]; 0.841 in assay [5]; 0.983 in assay [6]. For the same cell line, the IC50 was over 16 µM in assay [1]; over 8 µM in assay [2]; over 10.2 µM in assay [3]; over 16 µM in assay [4]; 4.31 µM in assay [5]; over 16 µM in assay [6].
As to LB1047-RCC (kidney, adherent), the AUC was determined as 0.615 in assay [1]; 0.979 in assay [3]; 0.7 in assay [4]; 0.848 in assay [5]; 0.419 in assay [7]; 0.843 in assay [6]. Further, the IC50 in assay [1] is 2.17 µM; in assay [3], over 10.2 µM; in assay [4], 3.97 µM; in assay [5] it was 4.47 µM; in assay [7] it was 0.0728 µM; in assay [6], 13.5 µM.
On to LNCaP-Clone-FGC (prostate, adherent), for which the AUC came to 0.818 in assay [1]; 0.983 in assay [2]; 0.912 in assay [3]; 0.971 in assay [4]; 0.978 in assay [5]; 0.864 in assay [6]. For the same cell line, the IC50 in assay [1] is 10.7 µM; in assay [2], over 8 µM; in assay [3], over 10.2 µM; in assay [4] it was over 16 µM; in assay [5], over 5 µM; in assay [6], over 16 µM.
